# Reference: the supplement of paper PMC8728848
# Some of the results follow.
# Legend:
# Test in all cases: glycan array binding signal (z-score within array); higher = stronger binding
# Details in all cases: glycan notation: IUPAC condensed, linker removed
# [1] = target: Fuc(a1-2)[GalNAc(a1-3)]Gal(b1-3)GlcNAc(b1-6)GalNAc
# In short: (§1)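 The binding signal is a Z-score computed within each array. Data were drawn from 3228 arrays in the Consortium for Functional Glycomics database, restricted to those with a known protein sequence. Scores were averaged over arrays of the same protein sequence at different concentrations or buffers, and over linkers, and negative values can be taken as non-binding.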
# [2] = target: Fuc(a1-2)[GalNAc(a1-3)]Gal(b1-4)Glc
# In short: as §1
# [3] = target: Fuc(a1-2)[GalNAc(a1-3)]Gal(b1-4)GlcNAc
# In short: as §1
# [4] = target: Fuc(a1-2)[GalNAc(a1-3)]Gal(b1-4)GlcNAc(b1-2)Man
# In short: as §1
# [5] = target: Fuc(a1-2)[GalNAc(a1-3)]Gal(b1-4)GlcNAc(b1-2)Man(a1-3)[Fuc(a1-2)[GalNAc(a1-3)]Gal(b1-4)GlcNAc(b1-2)Man(a1-6)]Man(b1-4)GlcNAc(b1-4)GlcNAc
# In short: as §1
# [6] = target: Fuc(a1-2)[GalNAc(a1-3)]Gal(b1-4)GlcNAc(b1-2)Man(a1-3)[Fuc(a1-2)[GalNAc(a1-3)]Gal(b1-4)GlcNAc(b1-2)Man(a1-6)]Man(b1-4)GlcNAc(b1-4)[Fuc(a1-6)]GlcNAc
# In short: as §1
# [7] = target: Fuc(a1-2)[GalNAc(a1-3)]Gal(b1-4)GlcNAc(b1-3)Gal(b1-4)GlcNAc
# In short: as §1
# [8] = target: Fuc(a1-2)[GalNAc(a1-3)]Gal(b1-4)GlcNAc(b1-3)Gal(b1-4)GlcNAc(b1-3)Gal(b1-4)GlcNAc
# In short: as §1
# [9] = target: Fuc(a1-2)[GalNAc(a1-3)]Gal(b1-4)GlcNAc(b1-3)GalNAc
# In short: as §1
# [10] = target: Fuc(a1-2)[GalNAc(a1-3)]Gal(b1-4)GlcNAc(b1-3)[Fuc(a1-2)[GalNAc(a1-3)]Gal(b1-4)GlcNAc(b1-6)]GalNAc
# In short: as §1
# [11] = target: Fuc(a1-2)[GalNAc(a1-3)]Gal(b1-4)GlcNAc(b1-6)GalNAc
# In short: as §1
# [12] = target: Fuc(a1-2)[GalNAc(a1-3)]Gal(b1-4)[Fuc(a1-3)]GlcNAc
# In short: as §1
# [13] = target: Fuc(a1-2)[GalNAc(a1-3)]Gal(b1-4)[Fuc(a1-3)]GlcNAc(b1-3)GalNAc
# In short: as §1
# [14] = target: Fuc(a1-2)[GalNAc(a1-4)]Gal(b1-4)GlcNAc
# In short: as §1
# [15] = target: Fuc(a1-2)[GalNAc(b1-3)]Gal
# In short: as §1
# Fuc(a1-3)GlcNAc = target: Fuc(a1-3)GlcNAc
# In short: as §1
# [16] = target: Fuc(a1-3)[Gal(b1-4)]Glc6S
# In short: as §1
# [17] = target: Fuc(a1-3)[Gal(b1-4)]GlcNAc
# In short: as §1
# [18] = target: Fuc(a1-3)[Gal(b1-4)]GlcNAc(b1-2)Man
# In short: as §1
# [19] = target: Fuc(a1-3)[Gal(b1-4)]GlcNAc(b1-2)Man(a1-3)[Fuc(a1-3)[Gal(b1-4)]GlcNAc(b1-2)Man(a1-6)]Man(b1-4)GlcNAc(b1-4)GlcNAc
# In short: as §1
# [20] = target: Fuc(a1-3)[Gal(b1-4)]GlcNAc(b1-2)Man(a1-3)[Fuc(a1-3)[Gal(b1-4)]GlcNAc(b1-2)Man(a1-6)]Man(b1-4)GlcNAc(b1-4)[Fuc(a1-6)]GlcNAc
# In short: as §1
# [21] = target: Fuc(a1-3)[Gal(b1-4)]GlcNAc(b1-3)Gal(b1-3)[Fuc(a1-4)]GlcNAc
# In short: as §1
# [22] = target: Fuc(a1-3)[Gal(b1-4)]GlcNAc(b1-3)Gal(b1-4)[Fuc(a1-3)]GlcNAc
# In short: as §1
# [23] = target: Fuc(a1-3)[Gal(b1-4)]GlcNAc(b1-3)Gal(b1-4)[Fuc(a1-3)]GlcNAc(b1-3)Gal(b1-4)[Fuc(a1-3)]GlcNAc
# In short: as §1
# [24] = target: Fuc(a1-3)[Gal(b1-4)]GlcNAc(b1-3)GalNAc
# In short: as §1
# [25] = target: Fuc(a1-3)[Gal(b1-4)]GlcNAc(b1-6)GalNAc
# In short: as §1
# [26] = target: Fuc(a1-3)[Gal(b1-4)]GlcNAc(b1-6)[Gal(b1-3)GlcNAc(b1-3)]Gal(b1-4)Glc
# In short: as §1
# [27] = target: Fuc(a1-3)[Gal(b1-4)]GlcNAc6S
# In short: as §1
# [28] = target: Fuc(a1-3)[Gal3S(b1-4)]Glc
# In short: as §1
# [29] = target: Fuc(a1-3)[Gal3S(b1-4)]GlcNAc
# In short: as §1
# [30] = target: Fuc(a1-3)[Gal3S(b1-4)]GlcNAc6S
# In short: as §1
# [31] = target: Fuc(a1-3)[GalNAc(b1-4)]GlcNAc
# In short: as §1
# [32] = target: Fuc(a1-3)[GalNAc(b1-4)]GlcNAc6S
# In short: as §1
# Fuc(a1-4)GlcNAc = target: Fuc(a1-4)GlcNAc
# In short: as §1
# Fuc(b1-3)GlcNAc = target: Fuc(b1-3)GlcNAc
# In short: as §1
# Gal(a1-2)Gal = target: Gal(a1-2)Gal
# In short: as §1
# Gal(a1-3)Gal = target: Gal(a1-3)Gal
# In short: as §1
binder,measurement,setting,value
PX9961C-bth-497-22-497 (Bacteroides thetaiotaomicron) (protein) DWLDLNTTSSVETGQAIVTLDDAQIALNGIYRLASGHSYYGDNYWYYGDCRAADVQARITKGDGKRVSPYYEYNVLASDNLNIVLPWNTVYKVIRQTNNLIQKIESGSIQSSDTKELNRIKSEALVMRGLSLFNLTRLFGMPYTNDKGASLGVPIETSPSDPTHKPSRSTVAQCYEQVVSDMSNALSGLRQETSNGYINYWAAQALLSRVYLNMGEYQKAYDAATDVIKNNGGRYQLYSYEEYPNVWGQDFQSESLFELYITLSEPSGGTGGEGAPMVYANEATVDWNNLILSEDFLNLLNEDPKDVRHCLTKESVIENNTGLPAAAMHEKVYLAKFPGKTGDDPKTNNICIIRLSEVYLNAAEAGLKKGTDIEEAQGYLNDIISRRTTDTSQQVSTETFTLDRILKERRKELVGEGEVFYDYLRNGLAIERKGSWHLETLKASNAQKIEATDLRIALPIPQSEIDANPNIQQNPR,glycan array binding signal (z-score),[1],-0.456
same,glycan array binding signal (z-score),[2],-0.509
same,glycan array binding signal (z-score),[3],-0.2
same,glycan array binding signal (z-score),[4],-0.384
same,glycan array binding signal (z-score),[5],0.689
same,glycan array binding signal (z-score),[6],0.399
same,glycan array binding signal (z-score),[7],0.192
same,glycan array binding signal (z-score),[8],0.32
same,glycan array binding signal (z-score),[9],-0.094
same,glycan array binding signal (z-score),[10],-0.164
same,glycan array binding signal (z-score),[11],-0.325
same,glycan array binding signal (z-score),[12],-0.109
same,glycan array binding signal (z-score),[13],-0.32
same,glycan array binding signal (z-score),[14],-0.157
same,glycan array binding signal (z-score),[15],0.454
same,glycan array binding signal (z-score),Fuc(a1-3)GlcNAc,-0.037
same,glycan array binding signal (z-score),[16],-0.096
same,glycan array binding signal (z-score),[17],0.076
same,glycan array binding signal (z-score),[18],1.56
same,glycan array binding signal (z-score),[19],-0.712
same,glycan array binding signal (z-score),[20],-0.096
same,glycan array binding signal (z-score),[21],-0.48
same,glycan array binding signal (z-score),[22],-0.305
same,glycan array binding signal (z-score),[23],0.176
same,glycan array binding signal (z-score),[24],0.476
same,glycan array binding signal (z-score),[25],0.511
same,glycan array binding signal (z-score),[26],-0.071
same,glycan array binding signal (z-score),[27],0.353
same,glycan array binding signal (z-score),[28],-0.401
same,glycan array binding signal (z-score),[29],-0.675
same,glycan array binding signal (z-score),[30],0.086
same,glycan array binding signal (z-score),[31],0.598
same,glycan array binding signal (z-score),[32],0.685
same,glycan array binding signal (z-score),Fuc(a1-4)GlcNAc,-0.268
same,glycan array binding signal (z-score),Fuc(b1-3)GlcNAc,-0.379
same,glycan array binding signal (z-score),Gal(a1-2)Gal,-0.153
same,glycan array binding signal (z-score),Gal(a1-3)Gal,0.007
